{"source": "ChEMBL document CHEMBL4888484", "about": "“Replenishing the malaria drug discovery pipeline: Screening and hit evaluation of the MMV Hit Generation Library 1 (HGL1) against asexual blood stage Plasmodium falciparum ,using a nano luciferase reporter read-out” (2022)", "note": "The campaign covered roughly 150,000 compounds. About 540 (0.36%) showed an effect of 50% or more. The list shows a part of the results."}
{"system": "Plasmodium falciparum", "experiment": "Primary screen in NF54 nanoGlo assay, in single point, at 2uM, 72h; a lower Z score goes with more inhibition", "format": "functional, Erythrocyte", "settings": "timepoint 72 hour", "units": {"% Inhibition": "%"}}
{"compound": "c1ccc2c(c1)N=C1C[C@H](N2)[C@H]2CO[C@@H]1O2", "% Inhibition": 7, "Z score": -1.12}
{"compound": "O=C(O)c1ccc(N2CCC[C@H](CN3CCCC3)C2)c(NS(=O)(=O)c2ccccc2Cl)c1", "% Inhibition": 2, "Z score": -0.19}
{"compound": "CC1c2[nH]c3ccccc3c2CC2C(=O)N(c3ccccc3C(=O)O)C(=O)N21", "note": "(stereo unspecified)", "% Inhibition": -11, "Z score": 1.05}
{"compound": "Cc1nn(-c2ccccc2)c2nc(Cc3ccccc3)nc(N3CCN(C(=O)c4cccc(Br)c4)CC3)c12", "% Inhibition": -8, "Z score": 1.24}
{"compound": "Cc1cnn(-c2cccc(N3CCN[C@H](C)C3)n2)c1", "% Inhibition": -13, "Z score": 2.04}
{"compound": "COc1cc(OC)cc(C(=O)N2CCC[C@H](Oc3ccncc3)C2)c1", "% Inhibition": 21, "Z score": -2.86}
{"compound": "COc1ccc(N(Cc2nnc(-c3ccco3)o2)C(C)C)cc1F", "% Inhibition": -14, "Z score": 2.05}
{"compound": "N#CCCN1CC(O)CC1C1CCCCC1", "note": "(stereo unspecified)", "% Inhibition": -7, "Z score": 1.03}
{"compound": "Cc1cccc(NC(=O)[C@H]2CCCN(c3nc4ccccc4[nH]3)C2)c1C", "% Inhibition": 11, "Z score": -1.92}
{"compound": "COc1cccc(CNC(=O)c2sc(Nc3ccc(F)cn3)nc2C)c1", "% Inhibition": -5, "Z score": 0.96}
{"compound": "CC(C)NC(=O)[C@@H]1C[C@@H](N)CN1C(=O)Cc1c(Cl)cccc1Cl", "% Inhibition": -6, "Z score": 1.11}
{"compound": "CCc1ccc(-n2nnc(-c3nnc(-c4ccco4)o3)c2C)cc1", "% Inhibition": -16, "Z score": 2.35}
{"compound": "CCCCCOc1ccc(S(N)(=O)=O)cc1C(C)C", "% Inhibition": -17, "Z score": 1.65}
{"compound": "CCn1nc(C)c(-c2ccc(C(=O)N3CCC4(CCO4)CC3)cc2)c1C", "% Inhibition": 0, "Z score": 0.07}
{"compound": "CC(=O)c1c(C)[nH]c(C(=O)[C@H](C)Nc2ccc3c(c2)OC2(CCCCC2)O3)c1C", "% Inhibition": -8, "Z score": 1.22}
{"compound": "CCC(C)C(C)(O)CNS(=O)(=O)c1ccc(F)cc1", "note": "(stereo unspecified)", "% Inhibition": -9, "Z score": 1.09}
{"compound": "CC(C)(C)OC(=O)N1CCN[C@@H](CNC(=O)Nc2ccccn2)C1", "% Inhibition": 0, "Z score": 0.05}
{"compound": "Cc1cc(C(F)(F)F)n(C[C@@H](C)CNC(=O)CNC(N)=O)n1", "% Inhibition": 8, "Z score": -1.32}
{"compound": "CC(=O)N1CCCN(C(=O)c2ccc(-c3ccccc3)[nH]c2=O)CC1", "% Inhibition": 2, "Z score": -0.39}
{"compound": "CC1C(Cc2ccccc2)CCN1C(=O)C1CCCN1", "note": "(stereo unspecified)", "% Inhibition": -5, "Z score": 0.6}
{"compound": "COc1cc(OC)nc(Oc2ccc(C(=O)NS(=O)(=O)C(C)C)c(Cl)c2)n1", "% Inhibition": -28, "Z score": 3.24}
{"compound": "COCCOc1ccc(NCc2cc(C#N)n(C)c2C)cn1", "% Inhibition": 9, "Z score": -1.64}
{"compound": "CC[C@H](C)[C@H](Nc1c(C#N)c(=O)n(C)c(=O)n1C)C(=O)OC(C)(C)C", "% Inhibition": 0, "Z score": 0.02}
{"compound": "COC[C@H](C)OC(=O)c1cccc(C#N)c1", "% Inhibition": -8, "Z score": 1.16}
{"compound": "Cc1ncsc1CCC(=O)N(C)Cc1n[nH]c2c1CCC2", "% Inhibition": 7, "Z score": -0.89}
{"compound": "Cc1cc(C(=O)N2CCOc3ccc(CN4CCOCC4)cc3C2)nn1C", "% Inhibition": -22, "Z score": 2.38}
{"compound": "CC(=O)N1CC(NC(=O)[C@@H](C)Cc2ccc(Cl)cc2)C1", "% Inhibition": -5, "Z score": 0.76}
{"compound": "CCN(CC)c1onc(-c2ccccc2)c1CN(CCCOC)C(=O)c1ccc(OC)cc1", "% Inhibition": -25, "Z score": 2.38}
{"compound": "COCCN(CC(=O)N(Cc1ccc(F)cc1)Cc1ccc(C)s1)C(=O)CC(C)(C)C", "% Inhibition": -12, "Z score": 1.5}
{"compound": "O=C(NCc1nc2ccccc2s1)[C@H]1CCC(=O)N(Cc2ccccn2)C1", "% Inhibition": -3, "Z score": 0.38}
{"compound": "O=C(N[C@@H]1CN(Cc2ccc3cc[nH]c3c2)C[C@H]1CO)c1cccnc1", "% Inhibition": -10, "Z score": 1.76}
{"compound": "CC(OC(=O)CC1CCCO1)c1c(F)cccc1N1CCOCC1", "note": "(stereo unspecified)", "% Inhibition": -10, "Z score": 1.29}
{"compound": "Cc1cnc(CN[C@@H](C)c2cc(C)oc2C)o1", "% Inhibition": 5, "Z score": -0.67}
{"compound": "CCCCC1CCC(c2nc(-c3ccncc3)no2)CC1", "note": "(stereo unspecified)", "% Inhibition": -6, "Z score": 0.93}
{"compound": "O=C(c1cccc(Br)c1)N1CCN(c2cc(N3CCCC3)ncn2)CC1", "% Inhibition": 1, "Z score": -0.17}
{"compound": "Cc1nc(O)nc(O)c1S(=O)(=O)N1CCC(C(=O)NC2CCCCCC2)CC1", "% Inhibition": 3, "Z score": -0.34}
{"compound": "COc1ccc(Oc2ccc(CNC(=O)c3cc4cc(OC)ccc4nc3C)cn2)cc1", "% Inhibition": 1, "Z score": -0.2}
{"compound": "O=C(N[C@H]1CCN(c2ccc(Br)cc2)C1)C1(O)CCCC1", "% Inhibition": -16, "Z score": 1.49}
{"compound": "Cc1ccc(OCC(=O)N2CCCC[C@H]2C(=O)N2CCOCC2)cc1", "% Inhibition": 8, "Z score": -1.05}
{"compound": "N#CC1C(c2cccc(Br)c2)C(C(N)=O)C(=O)NC1(O)c1ccccc1", "note": "(stereo unspecified)", "% Inhibition": -5, "Z score": 0.91}
{"compound": "Cc1ccsc1CN1CCc2nc(N3CCOCC3)ncc2C1", "% Inhibition": 3, "Z score": -0.49}
{"compound": "Cc1scc(C(=O)Nc2cccc(S(=O)(=O)N3CCOCC3)c2)c1C", "% Inhibition": -18, "Z score": 1.69}
{"compound": "Cc1ccccc1NC1(CNc2ccc(C#N)nn2)CCCC1", "% Inhibition": 15, "Z score": -1.72}
{"compound": "O=C(CCn1cnc2cc(-c3noc(CCC4CCCC4)n3)ccc21)N1CCCC1", "% Inhibition": -6, "Z score": 0.73}
{"compound": "O=S(=O)(Nc1nc2ccccc2nc1Nc1cccc2ncccc12)c1ccc(Br)cc1", "% Inhibition": -12, "Z score": 1.51}
{"compound": "c1ccc([C@@H]2CN(c3ncnc4c3CCNC4)CCO2)cc1", "% Inhibition": -13, "Z score": 1.72}
{"compound": "CCCS(=O)(=O)CCNC(C)(C)c1nccs1", "% Inhibition": 0, "Z score": 0.02}
{"compound": "CC1(Cc2nc(-c3cncc(Cl)c3)no2)CC1", "% Inhibition": 1, "Z score": -0.11}
{"compound": "Cc1cccc(OC(C)C(=O)Nc2ccc([C@H]3C[C@@H]3C(=O)O)cc2)c1", "note": "(stereo partly specified)", "% Inhibition": -3, "Z score": 0.47}
{"compound": "CC(C)[C@H]1CN(C)CCN1C(=O)CC1(c2ccccc2F)CC(=O)N(CCN(C)C)C1=O", "note": "(stereo partly specified)", "% Inhibition": -8, "Z score": 0.87}
{"compound": "Cc1cnc(CN2CC(=O)NC[C@H]2c2ccccc2)cn1", "% Inhibition": -8, "Z score": 0.91}
{"compound": "CCn1nnc2ccc(-c3noc(-c4ccccn4)n3)cc21", "% Inhibition": -16, "Z score": 2.68}
{"compound": "O=C(Cn1cnnn1)N1CCn2c(cc3cc(Cl)ccc32)C1", "% Inhibition": 2, "Z score": -0.43}
{"compound": "CN(C)[C@@H](CNC(=O)c1c(F)cccc1F)c1ccc2c(c1)CCO2", "% Inhibition": -5, "Z score": 0.81}
{"compound": "Cc1n[nH]c(C)c1NC(=O)Nc1cccc2c1CCN2C", "% Inhibition": 4, "Z score": -0.49}
{"compound": "CCc1ccc(CNC(=O)C2CCN(c3cnc(N4CCOCC4)nc3)CC2)cc1", "% Inhibition": -4, "Z score": 0.45}
{"compound": "O=C(Nc1ccc2oc(-c3ccccc3Cl)nc2c1)c1nc[nH]n1", "% Inhibition": -10, "Z score": 1.28}
{"compound": "Cc1oc2ccccc2c1CNC(=O)N1CCC(Nc2nccs2)CC1", "% Inhibition": -2, "Z score": 0.33}
{"compound": "COc1ccc(O[C@@H]2O[C@@H]3COC(C)(C)O[C@H]3[C@H](O)[C@H]2NC(C)=O)cc1", "% Inhibition": -14, "Z score": 1.8}
{"compound": "O=C(NCCOc1ccccc1F)C1CC=CC1", "% Inhibition": 5, "Z score": -0.64}
{"compound": "CCc1nnc(CNC(=O)Cn2ccnc2)s1", "% Inhibition": -4, "Z score": 0.77}
{"compound": "COc1ccc([C@H]2OCC(C)(C)n3c(-c4ccc(Cl)cc4)c4c(=O)n(C)c(=O)n(C)c4c32)cc1", "% Inhibition": 10, "Z score": -1.82}
{"compound": "O=C(NC1CCCCCCC1)c1nnc(-c2ccccc2)o1", "% Inhibition": -3, "Z score": 0.54}
{"compound": "O=C(c1ccccn1)N1CCc2cc(S(=O)(=O)N3CCOCC3)ccc21", "% Inhibition": -11, "Z score": 1.82}
{"compound": "CO[C@@H]1C[C@@H](CO)N(C(=O)c2cnc(C)nc2C)C1", "% Inhibition": -5, "Z score": 0.55}
{"compound": "COc1cccc(N2CCN(C(=O)c3cn4cc(-c5cccc(F)c5)ccc4n3)CC2)c1", "% Inhibition": -4, "Z score": 0.64}
{"compound": "Cc1nn(-c2ccccn2)c2c1-c1nc(-c3ccncc3)ncc1CC2", "% Inhibition": 1, "Z score": -0.13}
{"compound": "O=C(c1n[nH]c2ccccc12)N1CCCn2nc(-c3ccncc3)cc2C1", "% Inhibition": -22, "Z score": 4.07}
{"compound": "Cc1ccccc1NC(=O)COc1cc(C)c2c(-c3ccccc3)nn(-c3ccccc3)c2n1", "% Inhibition": -14, "Z score": 1.99}
{"compound": "CC(=O)N1CC[C@@]2(O)CCN(C/C(=C\\CC(C)C)c3ccccc3)C[C@H]2C1", "% Inhibition": -5, "Z score": 0.88}
{"compound": "CCN(CC)C(=O)c1ccc(COc2ccc3c(c2)[C@H](c2cccc(F)c2)N(C(=O)C(C)(C)C)CC3)o1", "% Inhibition": -10, "Z score": 1.23}
{"compound": "Cc1ccc(-c2nc(C(=O)N3CC(O)CC3c3ccccc3)cs2)n1C", "note": "(stereo unspecified)", "% Inhibition": 0, "Z score": 0.05}
{"compound": "Cn1ncc2c(=O)n(CC(=O)NCC3(N4CCOCC4)CCCCC3)nnc21", "% Inhibition": -6, "Z score": 0.79}
{"compound": "COc1ccc(N2CCN(c3ccc(NC(=O)C4CCCCC4)cc3C#N)CC2)cc1", "% Inhibition": 30, "Z score": -3.44}
{"compound": "CCOCCN1CCN(C(=O)c2csnn2)CC1", "% Inhibition": -2, "Z score": 0.27}
{"compound": "Cc1nccn1[C@@H](C)C(=O)NC1(CO)CCCC1", "% Inhibition": 14, "Z score": -1.92}
{"compound": "c1ccn2cc(CCN[C@H]3CCc4cc5c(cc43)OCCO5)nc2c1", "% Inhibition": 11, "Z score": -1.69}
{"compound": "CCCN1C[C@@H](Nc2nc(N)c3cnn(C)c3n2)CC1=O", "% Inhibition": -15, "Z score": 1.64}
{"compound": "CCc1cc(NC(=O)N[C@@H](C)c2nc(C(F)(F)F)no2)n(C)n1", "% Inhibition": -7, "Z score": 1}
{"compound": "Cc1[nH]ccc1C(=O)N1CCC[C@H](Oc2ccccc2)C1", "% Inhibition": -16, "Z score": 2.9}
{"compound": "COc1cccc(CNc2nnc3n2CCCCC3)c1", "% Inhibition": -27, "Z score": 3.22}
{"compound": "CCN1C(=O)NC(C)(C2CCCN(Cc3ccc(C)cc3)C2)C1=O", "note": "(stereo unspecified)", "% Inhibition": -7, "Z score": 1.12}
{"compound": "Cc1ccsc1[C@H]1CCN(C(=O)c2ccc(C)c(F)c2F)C[C@@H]1O", "% Inhibition": 4, "Z score": -0.47}
